Test results taken from publication PMC4336329 (PLoS ONE, 2015).
Among all 310,000 compounds or so, about 14,000 (4.5%) showed an effect of 50% or more. Effects have a minus sign here. The list shows a part of the results.

These molecules were tested against human ether-à-go-go-related gene (hERG) potassium channel (human, UniProt Q12809) (assay: primary screen, population patch clamp on CHO cells stably expressing hERG).
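Further: peak tail current of the secondary pulse compared with the same well before compound.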

human ether-à-go-go-related gene (hERG) potassium channel, sequence (Q12809 whole entry, looked up): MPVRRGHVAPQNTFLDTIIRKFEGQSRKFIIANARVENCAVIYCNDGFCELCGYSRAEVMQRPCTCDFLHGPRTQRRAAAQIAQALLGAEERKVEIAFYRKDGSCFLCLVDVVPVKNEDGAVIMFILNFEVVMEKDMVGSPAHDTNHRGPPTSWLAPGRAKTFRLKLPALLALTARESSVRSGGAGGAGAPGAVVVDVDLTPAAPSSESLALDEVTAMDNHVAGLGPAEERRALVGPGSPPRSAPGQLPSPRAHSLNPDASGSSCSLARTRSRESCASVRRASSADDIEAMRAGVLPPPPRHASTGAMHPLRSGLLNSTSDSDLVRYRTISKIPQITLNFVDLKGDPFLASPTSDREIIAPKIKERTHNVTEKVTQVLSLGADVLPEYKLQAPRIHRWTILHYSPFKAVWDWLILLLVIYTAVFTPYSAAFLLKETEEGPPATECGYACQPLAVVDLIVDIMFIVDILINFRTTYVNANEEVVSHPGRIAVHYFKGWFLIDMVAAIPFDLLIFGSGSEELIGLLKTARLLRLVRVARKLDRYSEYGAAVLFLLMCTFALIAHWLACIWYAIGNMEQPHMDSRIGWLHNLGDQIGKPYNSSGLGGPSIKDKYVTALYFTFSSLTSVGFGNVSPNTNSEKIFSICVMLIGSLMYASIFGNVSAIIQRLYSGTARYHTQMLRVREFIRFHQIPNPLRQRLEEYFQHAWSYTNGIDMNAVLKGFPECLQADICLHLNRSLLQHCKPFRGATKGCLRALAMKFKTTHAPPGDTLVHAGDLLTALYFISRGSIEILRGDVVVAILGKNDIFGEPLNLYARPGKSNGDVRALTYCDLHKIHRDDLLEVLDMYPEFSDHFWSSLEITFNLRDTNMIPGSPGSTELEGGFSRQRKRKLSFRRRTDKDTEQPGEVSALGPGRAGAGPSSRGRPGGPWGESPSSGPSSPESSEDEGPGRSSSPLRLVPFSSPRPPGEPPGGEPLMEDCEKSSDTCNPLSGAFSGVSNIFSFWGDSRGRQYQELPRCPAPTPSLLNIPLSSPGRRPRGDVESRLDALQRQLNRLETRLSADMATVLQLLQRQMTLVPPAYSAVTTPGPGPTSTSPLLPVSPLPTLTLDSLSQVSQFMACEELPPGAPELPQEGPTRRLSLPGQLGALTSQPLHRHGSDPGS

Row | SMILES | hERG current change (%, negative = inhibition) at 10uM [%]
1 | Nc1c(/C=C2\C=Nc3ccccc32)c(=O)nc2sc(CC(=O)N3CCOCC3)nn12 | 17.2
2 | C=CCN1C(=O)C2C(C(=O)NC3CCCC3)C3C=CC2(O3)C1C(=O)NC1CCCC1 (stereo not shown) | 19
3 | O=C(CSC1=NCCS1)Nc1ccc(S(=O)(=O)NC2CCCCC2)cc1 | -8.65
4 | CCN(CC(=O)Nc1ccc2c(c1)OCCO2)C(=O)/C=C/c1ccccc1 | 9.54
5 | CCCc1ncc(C(O)c2ccccc2OC)n1C (stereo not shown) | 14.7
6 | O=C(N/C(=C/c1ccc(Cl)cc1)C(=O)N1CCCCC1)c1ccco1 | 0.118
7 | COC(=O)Nc1csc2c1NC(=O)CCCC2 | 23.4
8 | Cc1cccc(-n2c(C)cc(C(=S)N3CCOCC3)c2C)c1C | -7.9
9 | CCN(CC)c1c([N+](=O)[O-])ncn1C | -16.8
10 | CCCCC(=O)N/N=C/c1c(O)n(-c2ccccc2)c(=O)[nH]c1=O | 15.7
11 | Cc1cccc(Oc2ccc3c(c2)cc(C(=O)O)n3C)c1 | -0.114
12 | O=C(NCC(=O)N1CCC2(CC1)NCCc1[nH]cnc12)c1ccc2ccccc2c1 | 11.7
13 | COc1ccc(Cl)cc1C(=O)OCC(=O)NCCNC(=O)COC(=O)c1cc(Cl)ccc1OC | -71.6
14 | O=C(CC(=O)N/N=C\c1ccccc1[N+](=O)[O-])NCCc1ccccc1 | 3.08
15 | Cc1noc(C)c1S(=O)(=O)Nc1ccc(C(=O)NCCc2ccccc2)cc1 | 4.12
16 | CS(=O)(=O)NCc1nnc(SCc2c(F)cccc2Cl)o1 | -1.23
17 | CCOc1ccc2nc(-c3ccccc3)nc(SCC(=O)Nc3ncc(C)s3)c2c1 | -0.463
18 | Cc1ccccc1N1CC(C(=O)Nc2nnc(SCC(=O)Nc3nccs3)s2)CC1=O (stereo not shown) | 10.4
19 | Cc1cc(N/N=C/c2ccc(O)cc2O)c2ccccc2n1 | 4.97
20 | COc1ccc(CCNc2ccc(C(CC(N)=O)NC(=O)Cc3ccc(Br)cc3)cc2[N+](=O)[O-])cc1 (stereo not shown) | 4.07
21 | COc1ccc(-c2ccc(=O)n(Cc3cccc(Cl)c3)n2)cc1 | 1.31
22 | Cc1ncccc1C(=O)N1CCCC(CCC(=O)N2CCN(c3ccccn3)CC2)C1 (stereo not shown) | 15.2
23 | NC(=O)c1cc(NC(=O)CCc2nc3ccccc3s2)cc(C(N)=O)c1 | 22.7
24 | COC(=O)c1ccc(C(NC(=O)OCc2ccccc2)/C(F)=C/[C@@H](C)C(=O)NCc2ccc(-c3ccccc3)cc2)cc1 (stereo partly shown) | 15.3
25 | O=C(NCC1COc2ccccc2O1)C1CCCN(S(=O)(=O)c2cccc3cccnc23)C1 (stereo not shown) | -18.7
26 | COc1ccc([C@H]2CC(=O)C=C(c3cc(C)ccc3OC)C2)cc1 | 2.17
27 | CSc1nsc(SCC(=O)Nc2ccc3c(c2)OCCO3)n1 | -4.72
28 | COc1ccc(C(=O)Nc2ccccc2-c2nnn(CC(=O)NCc3ccco3)n2)cc1 | 14.7

Row | SMILES | hERG current change (%, negative = inhibition) at 10uM [%]
29 | CCCCn1nnc(NC(=O)c2cc3ccccc3o2)n1 | 5.44
30 | CCOC(=O)c1nnn(CC(=O)NC(=O)Nc2ccccc2)c1C(=O)OCC | -15.9
31 | COc1ccc(-c2cc3onc(-c4c(Cl)cccc4Cl)c3c(=O)n2C)cc1 | 9.03
32 | CC(C)c1ccc(NC2CCCN(C(=O)c3cccc(N4CCNC4=O)c3)C2)cc1 (stereo not shown) | 2.24
33 | Cc1ccccc1NC(=O)CSc1nc(N)c(C#N)c(-c2cccs2)c1C#N | 6
34 | Cc1ccc(NC(=O)C2CCCN2C(=O)c2cccs2)cc1C (stereo not shown) | -25.5
35 | Cc1cc(C)c2nc(-c3ccccn3)cc(C(=O)Nc3cc(C)on3)c2c1 | 10.4
36 | CC1(C)OC(=O)C(=NNc2ccccc2[N+](=O)[O-])C(=O)O1 | 24.3
37 | Cn1c(CNC(=O)c2ccco2)nnc1SCC(=O)Nc1c(F)cc(F)cc1Br | 13.7
38 | COc1ccc(CC(=O)OCC(=O)c2ccc(S(=O)(=O)N3CCCCC3)cc2)cc1 | -14.3
39 | COc1ccc(CNCCSc2nnnn2C)c(OC)c1OC.Cl | 7.83
40 | C=CCN=C1N[C@@H](c2ccccc2)C(C(=O)OC)=C(C)N1CC | 1.27
41 | C#CCNC(=O)C1=C[C@H](c2ccccc2)[C@@H](CCCO)[C@H](OCC)O1 | 19.9
42 | COc1ccccc1OCc1nnc(SCCN2CCOCC2)o1.O=C(O)C(=O)O | -1.58
43 | Cn1ncc(Cl)c1C(=O)N1CCN(c2cccc(Cl)c2)CC1 | -8.7
44 | c1ccc(-c2nc(N3CCCC3)nc3ccccc23)cc1 | 8.87
45 | CCCCCN1C(C)=CC(=C(C#N)C#N)C=C1C | 16.3
46 | Cn1cccc1/C=C(/C#N)c1ccc(F)cc1 | -5.5
47 | CCc1ccc(-c2nc(SCC(=O)N3CCOCC3)n[nH]2)cc1 | 13.6
48 | CCOC(=O)c1cc2sc(C)cc2n1C(C)C(=O)OCC (stereo not shown) | -9.57
49 | COc1ccccc1-n1cc(C(=O)NCC(=O)NCc2ccc(F)cc2)c2ccccc2c1=O | -19.5
50 | CC(C)C(=O)N1CCC(c2nc(-c3ccc(S(=O)(=O)N4CCN(C)CC4)cc3)no2)CC1 | 13.2
51 | CC(C)CNC(=O)COC(=O)CCC(=O)c1cccs1 | 18.7
52 | CC(Nc1cccc(F)c1)C(=O)Nc1ccc(S(N)(=O)=O)cc1 (stereo not shown) | 19.3
53 | CCOC(=O)C1=C(C)Nc2ccccc2N=C1NC(=O)c1cc(C)on1 | -33
54 | COc1ccc(S(=O)(=O)Nc2ccccc2OC)cc1NC(=O)c1cc2ccccc2oc1=O | 8.54
55 | Cc1cc(NC(=O)C2CC=CCC2C(=O)O)no1 (stereo not shown) | -1.9
